Measured values published in the CheMixHub viscosity set.

Conditions: 101 kPa

| Structure (SMILES) | viscosity (298.15 K) | viscosity (303.15 K) | viscosity (308.15 K) | viscosity (318.15 K) |
| --- | --- | --- | --- | --- |
| CC(=O)[O-].CC[n+]1ccn(C)c1 | 128.4 ± 4.1 mPa·s [study A] and 126.3 ± 8.3 mPa·s [study B] and 140 ± 8.7 mPa·s [study C] and 132.9 ± 6 mPa·s [study D] | – | – | – |
| NC=O | – | 2.918 ± 0.091 mPa·s [study A] and 2.903 ± 0.029 mPa·s [study B] and 2.941 ± 0.13 mPa·s [study C] and 3.18 ± 0.03 mPa·s [study D] | 2.607 ± 0.081 mPa·s [study A] and 2.593 ± 0.069 mPa·s [study B] and 2.69 ± 0.07 mPa·s [study C] and 2.587 ± 0.026 mPa·s [study D] and 2.384 ± 0.11 mPa·s [study E] | 2.096 ± 0.065 mPa·s [study A] and 2.043 ± 0.054 mPa·s [study B] and 2.099 ± 0.021 mPa·s [study C] and 2.49 ± 0.02 mPa·s [study D] and 1.951 ± 0.091 mPa·s [study E] |

± gives the uncertainty stated by the source. Some entries of the source have several records that differ or are many. This list holds those alone. An entry can have further records. Results that share an entry are repeats across runs, samples, wells, individuals or studies. Records carry a tag for their origin. Letters hold for one entry only.
